Reference: the CheMixHub viscosity set

SMILES	viscosity (303.15 K, 100 kPa)	viscosity (303.15 K, 101 kPa)	viscosity (308.15 K, 100 kPa)	viscosity (308.15 K, 101.33 kPa)	viscosity (313.15 K, 100 kPa)	viscosity (313.15 K, 101 kPa)	viscosity (318.15 K, 100 kPa)	viscosity (323.15 K, 100 kPa)
CCC(=O)O	0.962 mPa·s [study A] and 0.959 ± 0.039 mPa·s [study B] and 0.96 ± 0.03 mPa·s [study C]	0.868 ± 0.044 mPa·s [study A] and 0.9294 ± 0.02 mPa·s [study B] and 0.9663 ± 0.011 mPa·s [study C] and 0.96 ± 0.01 mPa·s [study D] and 0.958 ± 0.025 mPa·s [study E]	0.896 mPa·s [study A] and 0.887 ± 0.036 mPa·s [study B] and 0.89 ± 0.03 mPa·s [study C]	0.894 ± 0.024 mPa·s [study A] and 0.8894 ± 0.051 mPa·s [study B] and 0.8894 ± 0.0088 mPa·s [study C] and 0.89 ± 0.05 mPa·s [study D]	0.843 mPa·s [study A] and 0.814 ± 0.033 mPa·s [study B] and 0.81 ± 0.03 mPa·s [study C]	0.8166 ± 0.018 mPa·s [study A] and 0.843 ± 0.011 mPa·s [study B] and 0.84 ± 0.01 mPa·s [study C] and 0.8451 ± 0.022 mPa·s [study D]	0.798 mPa·s [study A] and 0.742 ± 0.03 mPa·s [study B] and 0.74 ± 0.02 mPa·s [study C]	
CCCCCCCCCCCCC	1.53 ± 0.07 mPa·s [study A] and 1.54 ± 0.15 mPa·s [study B] and 1.56 ± 0.034 mPa·s [study C] and 1.527 mPa·s [study D]				1.29 ± 0.06 mPa·s [study A] and 1.178 ± 0.12 mPa·s [study B] and 1.315 ± 0.029 mPa·s [study C] and 1.291 mPa·s [study D]			
C1C[C@@H]2[C@H]3CC[C@H](C3)[C@@H]2C1					2.059 ± 0.045 mPa·s [study A] and 2.082 ± 0.21 mPa·s [study B] and 2.083 ± 0.048 mPa·s [study C] and 2.125 ± 0.02 mPa·s [study D]			1.764 ± 0.04 mPa·s [study A] and 1.763 ± 0.04 mPa·s [study B] and 1.773 ± 0.041 mPa·s [study C] and 1.762 ± 0.018 mPa·s [study D]

± gives the uncertainty stated by the source. For part of its entries the source gives two or more results. They are shown here; other results are not. There may be further records. Values that stand side by side are repeats (runs, samples, wells, individuals or studies). Brackets tell where a record comes from. Letters count within one entry.
